# Results: paper PMC4336329 (PLoS ONE, 2015)
# Screen size: about 310,000 compounds; about 2,200 (0.71%) showed an effect of 50% or more. Effects have a minus sign here. This is one part of the list.
# Molecular target: human ether-à-go-go-related gene (hERG) potassium channel (human, UniProt Q12809)
# Test: primary screen, population patch clamp on CHO cells stably expressing hERG
# Sequence of human ether-à-go-go-related gene (hERG) potassium channel (Q12809 whole entry, looked up): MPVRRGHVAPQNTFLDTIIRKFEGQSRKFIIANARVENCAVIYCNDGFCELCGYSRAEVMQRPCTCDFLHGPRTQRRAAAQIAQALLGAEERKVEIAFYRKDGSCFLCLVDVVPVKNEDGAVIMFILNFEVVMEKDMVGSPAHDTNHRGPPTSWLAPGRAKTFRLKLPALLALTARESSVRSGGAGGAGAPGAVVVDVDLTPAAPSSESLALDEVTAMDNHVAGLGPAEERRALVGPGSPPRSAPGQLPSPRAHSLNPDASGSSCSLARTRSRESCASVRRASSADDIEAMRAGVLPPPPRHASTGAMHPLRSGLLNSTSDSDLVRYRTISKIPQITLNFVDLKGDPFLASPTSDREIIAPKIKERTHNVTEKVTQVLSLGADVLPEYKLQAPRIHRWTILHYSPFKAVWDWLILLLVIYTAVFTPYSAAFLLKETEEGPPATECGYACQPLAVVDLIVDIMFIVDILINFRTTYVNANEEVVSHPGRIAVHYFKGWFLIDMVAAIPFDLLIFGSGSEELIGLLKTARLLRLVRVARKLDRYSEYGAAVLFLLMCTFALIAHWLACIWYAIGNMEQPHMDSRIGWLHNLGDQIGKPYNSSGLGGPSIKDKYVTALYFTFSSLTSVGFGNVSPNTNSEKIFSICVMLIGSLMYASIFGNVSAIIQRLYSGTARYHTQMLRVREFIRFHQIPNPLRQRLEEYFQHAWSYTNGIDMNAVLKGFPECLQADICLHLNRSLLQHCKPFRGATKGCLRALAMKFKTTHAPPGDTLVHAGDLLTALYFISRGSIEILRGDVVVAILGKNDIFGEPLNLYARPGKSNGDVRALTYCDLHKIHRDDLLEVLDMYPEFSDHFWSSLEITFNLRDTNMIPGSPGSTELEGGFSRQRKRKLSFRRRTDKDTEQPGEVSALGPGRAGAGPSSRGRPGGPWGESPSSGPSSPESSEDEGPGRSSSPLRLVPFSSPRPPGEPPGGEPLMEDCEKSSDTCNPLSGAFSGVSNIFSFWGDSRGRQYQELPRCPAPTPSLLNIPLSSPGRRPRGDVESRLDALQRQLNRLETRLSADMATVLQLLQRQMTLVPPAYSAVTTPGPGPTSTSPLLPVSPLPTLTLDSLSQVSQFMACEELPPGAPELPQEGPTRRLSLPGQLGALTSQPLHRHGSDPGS
row,SMILES,"hERG current change (%, negative = inhibition) at 1uM [%]"
1,O=C(COc1ccc([N+](=O)[O-])cc1Cl)N1CCOCC1,14.7
2,Cc1ccccc1-n1c(SC2CCOC2=O)nnc1-c1ccncc1 (stereo not drawn),1.13
3,CC(=O)N1c2ccc(S(=O)(=O)N3CCCC3)cc2CC1C(=O)NCc1cccc(F)c1 (stereo not drawn),7.57
4,O=C(O)CCC(=O)c1ccc(-c2ccccc2)cc1,-6.21
5,CCCCN(Cc1ccccc1)S(=O)(=O)c1cc(Br)cc2c1N(C(C)=O)C(C)C2 (stereo not drawn),9
6,CCOC(=O)c1cccc(NC(=O)CSc2nnc(-c3cccnc3)n2C)c1,-13.9
7,O=C(C1=C[C@@H](c2coc3ccccc3c2=O)C[C@@H](OCCCCO)O1)N1CCN(Cc2ccc3c(c2)OCO3)CC1,-15.1
8,N#CC1=C2SCCN2C(=O)C(C#N)C12CCCCC2 (stereo not drawn),-8.5
9,COc1ccccc1CNC(=O)c1cc2ccccc2o1,2.84
10,CC(=O)c1ccc(NC(=O)NCc2ccc(F)cc2)cc1,12.9
11,COc1ccc(OCC(=O)Nc2ccc(N3CCOCC3)c(Cl)c2)cc1,-0.0984
12,O=C(Cc1cccs1)Nc1cc(S(=O)(=O)N2CCCCC2)ccc1Cl,6.42
13,O=C(Cc1ccsc1)N1CCN(S(=O)(=O)c2cc(C(F)(F)F)cc(C(F)(F)F)c2)CC1,2.75
14,O=C(Cc1cn2ccsc2n1)Nc1nc2c(s1)CCCC2,5.23
15,C[C@H](NC(=O)c1nc[nH]c1C(=O)NC(c1ccccc1)c1ccccc1)C(=O)OC(C)(C)C,7.05
16,CCCCCNCc1cccn1C.Cl,4.32
17,CCn1c(=O)c(C(=O)NCCc2ccc(Cl)cc2)c(O)c2ccccc21,9.69
18,COc1ccc(Nc2nc(-c3ccccc3)nc3ccccc23)c(OC)c1,-0.879
19,CCCS(=O)(=O)N1CCC(C(=O)NCCN2CCC(Cc3ccccc3)CC2)CC1,-19.5
20,O=C(CSc1nnc(CNC(=O)c2c(F)cccc2F)o1)c1ccccc1,14
21,O=C(NCCN1CCN(C(=O)c2cccc([N+](=O)[O-])c2)CC1)C(=O)NCc1ccc(Cl)cc1,0.645
22,Cc1ccc(C(=O)c2ccccc2C(=O)OCC(=O)NCCc2ccccc2)cc1,4.27
23,Cn1nc(-c2ccccc2)c(C(=O)Nc2ccc(C(F)(F)F)cc2)c1Cl,5.65

row,SMILES,"hERG current change (%, negative = inhibition) at 1uM [%]"
1,C=CCOc1c(Br)cc(C2NC(=O)NC(C)=C2C(C)=O)cc1OCC (stereo not drawn),18.3
2,Cc1ccc(-c2noc(CCC(=O)N3CCCC3)n2)cc1,3.74
3,CCC(C)(C)NC(=O)CN(Cc1ccccc1)C(=O)CCC(=O)Nc1nccs1,2.68
4,CC(C)CCNC(=O)c1onc(CSc2ccccc2)c1C(=O)NCCC(C)C,9.9
5,CCc1ccc(OCC(=O)O/N=C(\N)c2ccncc2)c(Br)c1,10.5
6,Cn1c(=O)c(C(=O)Nc2ncccn2)c(O)c2ccccc21,16.4
7,Cc1ccc(Oc2ccc(OCC(=O)OC3CCS(=O)(=O)C3)cc2)cc1 (stereo not drawn),12.7
8,Cl.O=C(OCCN1CCCCC1)c1ccccc1Cl,9.06
9,CCCCOc1ccc(CCN)cc1Cl.Cl,-1.14
10,CNC(=O)COC(=O)c1ccc([N+](=O)[O-])cc1Cl,8.2
11,Cc1cc(C)[n+](C2C3CC4CC(C3)CC2C4)o1.[O-][Cl+3]([O-])([O-])[O-] (stereo not drawn),15.5
12,O=C(NNC(=S)NCc1ccccc1)c1ccc(OC(F)F)cc1,6.29
13,COc1cc(/C=N/NC(=O)CNC(=O)c2ccccc2)ccc1OC(=O)c1cccs1,9.49
14,CCc1ccc(C(=O)Nc2ccc(OC)c(S(=O)(=O)N3CCCCC3)c2)cc1,8.61
15,COc1ccc(NC(=O)NNC(=O)c2cc(C3CC3)nc3ccccc23)c(OC)c1,11
16,CCc1ccc(C(C(=O)NC2CCCC2)N(Cc2cccnc2)C(=O)c2csnn2)cc1 (stereo not drawn),2.84
17,S=C(NCc1ccco1)N/N=C/c1ccncc1,9.3
18,CCOc1ccc(CCNC(=O)/C=C/c2ccco2)cc1OCC,-170
19,O=C(O)c1ccc(-c2noc(-c3ccccc3C(F)(F)F)n2)cc1,18.6
20,CCCCC12CNCC(C)(CNC1)C2=O,9.47
21,COC(CNS(=O)(=O)c1cccc2nonc12)OC,13.7
22,COc1ccc(Cl)cc1NS(=O)(=O)c1ccc(OC)c(OC)c1,7.09
23,C=CCN(C(=O)c1csnn1)C(C(=O)NC1CCCC1)c1c(F)cccc1Cl (stereo not drawn),15.7

row,SMILES,"hERG current change (%, negative = inhibition) at 1uM [%]"
1,COc1ccc(Cc2cc(-c3ccc(F)cc3)n[nH]c2=O)cc1,13.2
2,COCCn1c(SCC(N)=O)nnc1-c1c[nH]c2ccccc12,7.03
3,CN(C(=O)c1ccc(NC(=O)Cc2ccc(NC(=O)C3CCCN(C(=O)C4CC4)C3)cc2)cc1)C1CC1 (stereo not drawn),8.71
4,CSc1oc(-c2cccs2)nc1S(=O)(=O)c1ccccc1,4.25
5,Cn1c(=O)c(C(=S)NC(=O)C2CC2)c(N)n(Cc2ccccc2)c1=O,16.4
6,Cc1cccn2c(=O)c(C=NCc3ccccc3)c(NCCO)nc12,4.27
7,CC(CN1CCOCC1)OC(=O)/C=C/c1ccccc1.Cl (stereo not drawn),14.1
8,COC(=O)c1cccc(COC(=O)c2cccnc2SC)c1,-1.25
9,O=C(c1ccc(Cl)nc1)N1CCN(S(=O)(=O)c2ccc3c(c2)OCCO3)CC1,7.17
10,CCCOc1ccc(-c2nn(-c3ccccc3)cc2/C=C2\SC(N)=NC2=O)cc1,0.968
11,COc1ccc(NC(=O)CN(C)C2CCCCC2)c([N+](=O)[O-])c1,7.35
12,COc1cccc(OCC(O)CN2CCN(c3ncccn3)CC2)c1.Cl (stereo not drawn),3.06
13,Cc1cc(C(=O)NNS(=O)(=O)c2ccccc2C(F)(F)F)nn1C(C)(C)C,9.52
14,CCOc1ccc(NC(=O)C2CCCN(S(=O)(=O)c3c(C)nn(C)c3C)C2)cc1 (stereo not drawn),4.3
15,O=C(CN1N=C(c2ccccc2)CCC1=O)NCc1ccccc1,6.79
16,COc1ccc(CC(C)Nc2cccc(F)c2)cc1 (stereo not drawn),17.7
17,COc1ccc2c(C)cc(SCC#N)nc2c1,11.8
18,Cn1c(C(=O)O)c(CC(=O)NCc2cccnc2)c2ccccc21,7.96
19,Cc1ncc([N+](=O)[O-])n1Cc1cccc2ccccc12,8.9
20,CC1(C)Cc2c(sc(NC(=O)C(=O)N3CCCCC3)c2C(=O)O)CO1,10.7
21,CCOC(=O)c1c(NC(=O)c2ccccc2)sc2c(O)c(CN(CC)CC)ccc12.Cl,-5.27
22,NC(=O)CCC(C(=O)O)N1C(=O)c2ccc(O)cc2C1=O (stereo not drawn),9.53
23,O=C(NC(=O)c1ccccc1O)c1ccc(C(F)(F)F)cc1,16.5

row,SMILES,"hERG current change (%, negative = inhibition) at 1uM [%]"
1,C=CCc1c(C)nc(-c2ccccc2)nc1Nc1ccccc1O,3.7
2,C=CCn1c(SCc2ccccc2)nc2c1c(=O)[nH]c(=O)n2C,-9.19
3,COC(=O)C(=C/C(C)=C/c1cccs1)C(=O)OC,10.7
4,CN1C(=O)/C(=C/c2ccc(C(F)(F)F)cc2)Sc2ccc(C(=O)N3CCN(c4ccccn4)CC3)cc21,9.9
5,CCN1C(=O)c2ccccc2S(=O)c2ccc(C(=O)NCCN(CC(C)C)CC(C)C)cc21 (stereo not drawn),8.48
6,CC(C)(CNC(=O)c1ccc(Cl)c(S(=O)(=O)N2CCc3ccccc3C2)c1)N1CCOCC1,-9.68
7,CC1(C)CC(=O)C=C(N2CCNCC2)C1,14
8,CCOc1ccc(N(CC(=O)NCc2cccc(OC)c2)S(=O)(=O)c2c(C)noc2C)cc1,8.09
9,CCOC(=O)c1ccccc1NC(=O)c1cccnc1,-3.61
10,O=C(NCc1ccc2c(c1)OCO2)c1ccc(S(=O)(=O)C(F)F)cc1,-0.408
11,Cc1ccc(NS(=O)(=O)c2ccc(OCC(N)=O)cc2)cc1,10.3
12,CC(=O)N1CCc2cc(S(=O)(=O)CCC(=O)NCc3cccs3)ccc21,8.45
13,Cc1cccc(NC(=O)c2cn(-c3ccccc3)nc2-c2ccccc2)c1,15
14,CCN(CC)S(=O)(=O)c1ccc(NC=C(C#N)C#N)cc1,10.8
15,Cn1c(=O)c(C(=O)N2CCc3ccccc32)cc2cccnc21,4.08
16,C=CCc1c(C)nc(-c2ccccc2)nc1N/N=C(\C)c1ccc(N)cc1,8.46
17,Cc1cccc(NC(=O)Nc2cnccn2)c1,14.7
18,CC(CCc1ccccc1)NC(=O)Cc1ccccc1 (stereo not drawn),16.4
19,O=C(CNC(=O)OCc1ccccc1)Nc1ccc(Br)cc1C(=O)c1ccccc1,0.0793
20,Cn1c(-c2ccc(F)c(F)c2)cc2onc(-c3ccccc3)c2c1=O,-9.42
21,COc1cc(C(=O)Nc2cccc(-n3cnnn3)c2)cc(OC)c1OC,19
